Experimental data taken from PubChem BioAssay AID504333 (National Center for Advancing Translational Sciences (NCATS), 2011).
About 16,000 (4.4%) of roughly 360,000 compounds were called active. Inconclusive means that the source gave no clear call. Such entries were picked first, then a sample of the others. Calls follow the shape of the dose curve; as a rule, active = well fitted inhibition curve with a large enough effect; inconclusive = small, poorly fitted or top-dose-only effect; inactive = no such curve, though single readings can be large or run the other way. Where the call is inconclusive, the potency comes from a doubtful curve fit.

target: Bromodomain adjacent to zinc finger domain protein 2B (Homo sapiens) (UniProt Q9UIF8); assay: qHTS Assay for Inhibitors of BAZ2B; settings: AlphaScreen BAZ2B-H3K14Ac peptide displacement; activity change, negative = inhibition: at 114 µM (top of the series); also: nearly all actives have a fitted effect of over 60% in size
Procedure, shortened: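 Protein-peptide AlphaScreen: BAZ2B 50 nM, b-H3K14Ac 50 nM, 1x PBS pH 7.4 + 0.01% Tween-20. Preincubation 30 min RT; cpd 30 min RT (top 110 uM); beads 20 min RT, light-protected.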
% is scaled to controls: 0 for no effect and ±100 for the full control effect; potency is read from the fitted curve at half-maximal effect; tags tell the direction and shape of the fitted curve.

UniProt Q9UIF8, sequence (Q9UIF8 whole entry, looked up, the tested form may be a part): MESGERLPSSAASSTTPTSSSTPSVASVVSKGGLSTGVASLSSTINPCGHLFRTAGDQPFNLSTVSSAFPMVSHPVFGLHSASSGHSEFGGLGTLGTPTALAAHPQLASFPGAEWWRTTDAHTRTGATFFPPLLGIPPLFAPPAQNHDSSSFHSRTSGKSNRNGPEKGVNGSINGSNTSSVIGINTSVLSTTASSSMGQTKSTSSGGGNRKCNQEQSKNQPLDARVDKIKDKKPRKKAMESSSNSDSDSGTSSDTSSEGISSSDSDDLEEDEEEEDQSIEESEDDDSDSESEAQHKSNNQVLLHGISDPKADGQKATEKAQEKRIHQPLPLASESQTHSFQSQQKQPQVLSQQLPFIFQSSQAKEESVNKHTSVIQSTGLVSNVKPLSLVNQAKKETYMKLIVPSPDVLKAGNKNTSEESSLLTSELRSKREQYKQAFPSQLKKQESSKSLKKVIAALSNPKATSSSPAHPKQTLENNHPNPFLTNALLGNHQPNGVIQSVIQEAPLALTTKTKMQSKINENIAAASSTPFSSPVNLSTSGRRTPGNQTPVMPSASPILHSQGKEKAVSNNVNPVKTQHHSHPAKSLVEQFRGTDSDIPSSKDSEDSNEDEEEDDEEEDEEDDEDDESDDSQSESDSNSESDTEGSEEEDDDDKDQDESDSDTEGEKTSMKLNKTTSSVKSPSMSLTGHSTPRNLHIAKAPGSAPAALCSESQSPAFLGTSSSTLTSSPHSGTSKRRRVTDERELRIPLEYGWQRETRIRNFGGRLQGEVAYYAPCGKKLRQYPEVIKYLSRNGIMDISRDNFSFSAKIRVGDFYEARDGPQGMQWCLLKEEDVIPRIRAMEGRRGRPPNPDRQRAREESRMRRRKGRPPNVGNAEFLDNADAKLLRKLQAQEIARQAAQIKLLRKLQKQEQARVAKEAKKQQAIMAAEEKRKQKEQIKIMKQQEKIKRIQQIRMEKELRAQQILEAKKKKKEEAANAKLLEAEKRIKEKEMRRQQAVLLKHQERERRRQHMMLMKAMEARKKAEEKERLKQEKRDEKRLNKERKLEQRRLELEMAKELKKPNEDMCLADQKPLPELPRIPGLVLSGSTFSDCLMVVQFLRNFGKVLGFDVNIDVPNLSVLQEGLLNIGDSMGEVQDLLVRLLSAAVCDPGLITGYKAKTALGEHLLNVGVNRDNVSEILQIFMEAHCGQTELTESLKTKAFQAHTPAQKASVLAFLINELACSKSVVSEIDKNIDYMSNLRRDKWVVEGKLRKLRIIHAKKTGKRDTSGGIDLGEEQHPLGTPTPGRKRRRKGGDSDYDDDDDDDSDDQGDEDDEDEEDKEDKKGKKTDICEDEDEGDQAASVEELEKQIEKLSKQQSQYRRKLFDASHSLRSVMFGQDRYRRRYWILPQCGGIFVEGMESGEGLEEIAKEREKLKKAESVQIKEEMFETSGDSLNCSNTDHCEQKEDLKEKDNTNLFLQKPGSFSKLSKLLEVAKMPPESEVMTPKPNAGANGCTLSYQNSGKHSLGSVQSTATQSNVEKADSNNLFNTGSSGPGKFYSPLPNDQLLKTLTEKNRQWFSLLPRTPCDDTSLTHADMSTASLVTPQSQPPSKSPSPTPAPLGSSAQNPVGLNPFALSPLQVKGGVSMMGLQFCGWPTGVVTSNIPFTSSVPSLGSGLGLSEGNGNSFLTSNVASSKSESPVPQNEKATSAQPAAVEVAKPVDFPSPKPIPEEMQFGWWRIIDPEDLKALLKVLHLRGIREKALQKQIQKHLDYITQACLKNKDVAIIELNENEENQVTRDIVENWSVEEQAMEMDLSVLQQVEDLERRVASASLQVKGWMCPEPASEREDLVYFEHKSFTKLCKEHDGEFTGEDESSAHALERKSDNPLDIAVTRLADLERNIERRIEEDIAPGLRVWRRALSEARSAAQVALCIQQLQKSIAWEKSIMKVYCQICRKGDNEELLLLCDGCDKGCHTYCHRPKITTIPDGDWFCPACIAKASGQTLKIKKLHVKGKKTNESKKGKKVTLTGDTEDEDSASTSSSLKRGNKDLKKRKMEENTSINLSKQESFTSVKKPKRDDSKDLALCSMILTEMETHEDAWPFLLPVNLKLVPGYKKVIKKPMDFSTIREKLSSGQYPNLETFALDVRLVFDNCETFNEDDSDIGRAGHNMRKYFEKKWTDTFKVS

Row | SMILES | Potency | activity change, negative = inhibition
1 | COc1ccc(-c2nc(-c3ccc(O)cc3O)cs2)cc1OC | inconclusive: 44.7 µM [inhibitor, partial curve] | 
2 | Cc1c(Cl)cnc(NC(=O)COC(=O)CCS(=O)(=O)c2ccccc2)c1Cl | inconclusive: 50.1 µM [inhibitor, partial curve] | 
3 | COc1ccc(OCCNc2cc(Cl)ccc2[N+](=O)[O-])cc1 | inconclusive: 31.6 µM [inhibitor, full curve, poor fit] | 
4 | CCCCC[C@H](O)/C=C/[C@H]1C=CC(=O)[C@@H]1C/C=C\CCCC(=O)O | active: 50.1 µM | 
5 | CSCC[C@H](NC(=O)C1CCN(S(=O)(=O)c2ccc(C)cc2)CC1)C(=O)NCc1ccco1 | inconclusive: 89.1 µM [inhibitor, single point] | 
6 | Cc1nc2sc(C(c3ccco3)N3CCC(Cc4ccccc4)CC3)c(O)n2n1 (stereo not drawn) |  | inactive: -34.6%
7 | Cc1ccc2[nH]c(-c3cccc(N)c3)cc2c1 | active: 50.1 µM | 
8 | CN(C(=O)c1ccncc1)c1nnc(-c2cccnc2)s1 |  | inactive: -4.75%
9 | Cc1cc(C(=O)Nc2ccncc2)c2ccccc2n1 | inconclusive: 79.4 µM [inhibitor, single point] | 
10 | Cn1c(=NC(=O)CSCC(=O)N2CCCCC2)sc2ccccc21 | inconclusive: 39.8 µM [inhibitor, single point] | 
11 | O=C(Nc1ccc(S(=O)(=O)Nc2nccs2)cc1)c1cc(-c2ccccn2)nc2ccccc12 | inconclusive: 22.4 µM [inhibitor, full curve] | 
12 | O=C(CNc1cccc2ccccc12)N/N=C/c1cccc(Oc2ccccc2)c1 | inconclusive: 44.7 µM [inhibitor, partial curve] | 
13 | c1ccc(C(c2nnnn2Cc2ccco2)N2CCN(C3CCCC3)CC2)cc1 (stereo not drawn) | inconclusive: 89.1 µM [inhibitor, single point] | 
14 | c1ccc(N2CCN(c3ccccc3)C2c2cccnc2)cc1 | inconclusive: 44.7 µM [inhibitor, partial curve] | 
15 | c1cc(CNC2=NCCCCC2)ccn1 | inconclusive: 89.1 µM [inhibitor, single point] | 
16 | Cc1ccc(/C=C2\SC(=S)N(NS(=O)(=O)c3ccc(C)cc3)C2=O)cc1 | active: 50.1 µM | 
17 | CN1CCN/C1=C(/C(Cl)=C(Cl)Cl)[N+](=O)[O-] |  | inactive: -27.2%
18 | Cc1ccc(C2(C)NC(=O)N(CC(=O)Nc3nc(-c4ccccn4)cs3)C2=O)cc1 (stereo not drawn) | active: 79.4 µM | 
19 | CCOc1ccc(NC(C)C(=O)N/N=C/c2ccc([N+](=O)[O-])cc2)cc1 (stereo not drawn) | inconclusive: 70.8 µM [inhibitor, single point] | 
20 | C(=N\N1CCN(C(c2ccccc2)c2ccccc2)CC1)/c1ccc2c(c1)OCO2 | inconclusive: 15.8 µM [inhibitor, partial curve] | 
21 | C#CCOCCOCCOCCNc1nc(N2CCN(C(=O)[C@H](Cc3ccc(O)cc3)n3cc([C@@H](N)C(C)CC)nn3)CC2)nc(N2CCN(C(=O)[C@H](CCCCN)n3cc([C@@H](N)CC(C)C)nn3)CC2)n1 (stereo partly drawn) | active: 79.4 µM | 
22 | Cc1ccc(NC(=O)C2CCCN(c3nnc(C)c4c(C)n(-c5ccccc5)nc34)C2)c(Cl)c1 (stereo not drawn) | inconclusive: 79.4 µM [inhibitor, single point] | 
23 | O=[N+]([O-])c1cc(/C=N/O)ccc1Oc1cccc(Cl)c1 | inconclusive: 70.8 µM [inhibitor, partial curve] | 

Row | SMILES | Potency | activity change, negative = inhibition
24 | Cc1ccc(-c2csc3nnc(SCC(=O)Nc4cccc(C)n4)n23)cc1 | inconclusive: 50.1 µM [inhibitor, partial curve] | 
25 | COC(=O)C(C#N)c1nc2ccccc2nc1N1CCCC1 (stereo not drawn) | inconclusive: 50.1 µM [inhibitor, partial curve] | 
26 | CCOC(=O)c1c(NC(=O)CSc2c[nH]c3ccccc23)sc2c1CCC2 | inconclusive: 31.6 µM [inhibitor, full curve, poor fit] | 
27 | COc1ccc(NC(=O)c2cc3c(-c4ccc(OC)c(OC)c4)nn(C)c3s2)cc1OC | inconclusive: 79.4 µM [inhibitor, single point] | 
28 | CN(C)c1ccc(/C=C2\CCC/C(=C\c3ccccc3)C2=O)cc1 | inconclusive: 31.6 µM [inhibitor, partial curve] | 
29 | Cc1ccc(-c2csc(Nc3ccc(S(N)(=O)=O)cc3)n2)o1 | active: 44.7 µM | 
30 | CCCOc1ccccc1C1CC(=O)Nc2cc3c(cc21)OCO3 (stereo not drawn) | active: 28.2 µM | 
31 | C/C(=N/NC(=O)c1ccccc1)C1=C(O)CC(C)(C)CC1=O |  | inactive: -11.2%
32 | COc1cc(C(C)=O)ccc1OCCN1CCC(Cc2ccccc2)CC1 | active: 31.6 µM | 
33 | COc1ccc(/C=N/NC(N)=S)cc1OC(=O)c1ccccc1 | inconclusive: 50.1 µM [inhibitor, partial curve] | 
34 | C=CCOc1ccccc1CN1CCCN(C)CC1 | active: 70.8 µM | 
35 | O=C(Nc1ccccn1)C(F)(F)C(F)(F)C(F)(F)C(F)(F)C(=O)Nc1ccccn1 | inconclusive: 89.1 µM [inhibitor, single point] | 
36 | CCOc1cc(C2NC(=O)CCC2[N+](=O)[O-])cc(Br)c1OC (stereo not drawn) |  | inactive: -2.64%
37 | Cc1noc(NS(=O)(=O)c2ccc(NC(=O)/C=C/c3ccc(Br)cc3)cc2)c1C |  | inactive: -35.1%
38 | O=C(O)c1cccc(-c2ccc(/C=N/NC(=O)C3COc4ccccc4O3)o2)c1 (stereo not drawn) | inconclusive: 79.4 µM [inhibitor, single point] | 
39 | O=C(O)c1ccc(CNCc2ccc(Cl)cc2)s1 |  | inactive: 2.35%
40 | O=C(NC1CC1)C1CCN(S(=O)(=O)c2cc(Cl)ccc2Cl)CC1 | active: 56.2 µM | 
41 | Cc1ccc(C)c(OCc2cc(C(=O)N3CCN(c4cnccn4)CC3)no2)c1 | inconclusive: 35.5 µM [inhibitor, partial curve] | 
42 | O=C(NNC(=S)Nc1ccc(F)c(Cl)c1)C1CC1 |  | inactive: 5.91%
43 | CCOc1ccc(NC(=O)c2c(Nc3ccc(OC)cc3OC)sc(C(=O)c3ccc(Cl)cc3)c2N)cc1 | inconclusive: 35.5 µM [inhibitor, full curve] | 
44 | CCOc1ccc(NC(=O)CSc2nc(-c3ccc(OC)cc3)nc3c2Cc2c(CO)cnc(C)c2O3)cc1 | inconclusive: 50.1 µM [inhibitor, partial curve, poor fit] | 
45 | O=C(N/N=C/c1ccco1)C1CC1(c1ccccc1)c1ccccc1 (stereo not drawn) | inconclusive: 89.1 µM [inhibitor, single point] | 
46 | O=C(NCc1cccs1)c1noc2c1CCCCC2 |  | inactive: 0.845%

Row | SMILES | Potency | activity change, negative = inhibition
47 | Cc1ccsc1C(=O)N1CCN(S(=O)(=O)c2cccc(F)c2)CC1 |  | inactive: 6.57%
48 | CC1OC(O[C@H]2CC[C@]3(C)C4C=C[C@]56OC[C@@]7(CC[C@@H](C)[C@H](C)C75)[C@H](O)C[C@@]6(C)[C@]4(C)CC[C@H]3C2(C)C)C(OC2OC(CO)C(O)C(O)C2OC2OCC(O)C(O)C2O)C(O)C1O (stereo partly drawn) | inconclusive: 79.4 µM [inhibitor, single point] | 
49 | Cc1cc(C)c(C)c(S(=O)(=O)NCc2ccco2)c1C | inconclusive: 89.1 µM [inhibitor, single point] | 
50 | Cc1ccccc1C(=O)NC(=S)Nc1ccc(N2CCN(C(=O)c3ccccc3)CC2)cc1 |  | inactive: 0.365%
51 | Oc1ccc(/C=N/Nc2ccnc3cc(Cl)ccc23)cc1O | active: 39.8 µM | 
52 | Oc1c(C=Nc2cccnc2)sc2ccccc12 | inconclusive: 89.1 µM [inhibitor, single point] | 
53 | COc1ccc(NC(=O)CN(C)C(=O)c2cc(CN3C(=O)c4ccccc4C3=O)ccc2OC)cc1 |  | inactive: 3.91%
54 | CC(=O)O/N=C/c1c(C)c(C=O)n2ccccc12 | inconclusive: 79.4 µM [inhibitor, partial curve] | 
55 | Cc1cc(NC(=O)CSc2nccn2-c2ccc(Cl)cc2)no1 | inconclusive: 44.7 µM [inhibitor, partial curve] | 
56 | Cc1ccccc1CN1CCN(C(=O)c2cc(-c3ccncc3)nc3ccccc23)CC1 | inconclusive: 50.1 µM [inhibitor, partial curve] | 
57 | CN(C)CCN(C(=O)C1CCN(S(=O)(=O)c2cccs2)CC1)c1nc2c(F)cccc2s1 | inconclusive: 79.4 µM [inhibitor, single point] | 
58 | CC(=O)NCC1CCCN(C(=O)c2oc3c(F)cccc3c2C)C1 (stereo not drawn) | inconclusive: 89.1 µM [inhibitor, single point] | 
59 | O=C(Nc1ccccc1)O/N=C/c1ccccc1Cl | inconclusive: 7.08 µM [inhibitor, single point] | 
60 | COc1ccc(N2CCN(c3oc(-c4ccc(OC)c(OC)c4)nc3C#N)CC2)cc1 | inconclusive: 10 µM [inhibitor, full curve, poor fit] | 
61 | O=C(O)c1ccc(/C=C2/SC(=S)N(Cc3ccccc3)C2=O)cc1 | inconclusive: 70.8 µM [inhibitor, single point] | 
62 | COC(=O)CC1C(=O)NCCN1C(=O)c1ccc(Cl)cc1 (stereo not drawn) |  | inactive: 10.7%
63 | CCCCCCCc1c(C#N)c(N)[nH]c(=S)c1C#N | inconclusive: 39.8 µM [inhibitor, partial curve] | 
64 | CCC1C(=O)N=C(SCC(=O)Nc2ccc(C(=O)OC)cc2)NC1=O (stereo not drawn) | inconclusive: 89.1 µM [inhibitor, single point] | 
65 | O=C(O)c1cc2c(ccc3ccccc32)o1 |  | inactive: -2.13%
66 | Cc1cc(C)n(-c2cc(N3CCN(C(=O)c4ccc(C(C)(C)C)cc4)CC3)ccc2[N+](=O)[O-])n1 | inconclusive: 70.8 µM [inhibitor, single point] | 
67 | CN(Cc1nc2ccccc2c(=O)[nH]1)Cc1nc2ccsc2c(=O)[nH]1 | active: 39.8 µM | 
68 | Cn1c(SCc2ccccc2)nnc1C1CCCNC1 (stereo not drawn) | inconclusive: 89.1 µM [inhibitor, single point] | 
